The record followed here is PubChem BioAssay AID1508624 (National Center for Advancing Translational Sciences (NCATS), 2021).

In all, about 48,000 compounds went through this assay and about 120 (0.25%) were called active. Another 4% or so got no clear call; they are omitted. The call rests on the fitted dose curve; in most records, active means well fitted activation curve with a large enough effect; inconclusive means small, poorly fitted or top-dose-only effect, or another doubt; inactive means no such curve, though single readings can be large or run the other way. Some of the results follow.

The nature of this test: Primary qHTS for Identification of Small Molecule Activators of Huntingtin-Antisense Promoter Activity. Further: nearly all actives have a fitted effect of over 55% in size. The settings on record: HEK293 HTT-AS promoter firefly luciferase reporter (activity 0% = vehicle and -100% = no light), 24 h; series mostly up to 57.5 µM; activity change, positive = activation: at the top concentration. The gist of the method: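 HEK293 luciferase promoter-reporter cells (2,500/well) plated 24 h, then compounds added at up to 57.5 uM final for 24 h at 37 °C. Firefly luminescence by Dual-Glo, normalized to vehicle (0%) and zero RLU (-100%).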
(Quantitative high-throughput screening tests each substance at several concentrations.)
For the compound `N#Cc1ccc(C(=O)NCc2ccc3c(c2)CCN3C(=O)c2ccc(F)cc2)cc1`, the “activity change, positive = activation” value was inactive: 3.78%. For the compound `CCOC(=O)c1ccc(N2C(=O)c3n[nH]c(C)c3C2c2ccccc2OC)cc1` (stereo unspecified), the “activity change, positive = activation” value was inactive: -31.5%.

`Cc1cccc(CCNc2ncnc3onc(-c4ccc(Cl)cc4)c23)c1`: the “activity change, positive = activation” value is inactive: -41.1%.

Regarding `COC(=O)c1ccc(NC(=O)CN(CCc2ccccc2)S(=O)(=O)c2ccc(OC)cc2)cc1`, the “activity change, positive = activation” value is inactive: -47.8%. Consider `Cc1cccc(Cn2nc(C)n3c(cc4cc(C)ccc43)c2=O)c1`, for which the “activity change, positive = activation” value is inactive: -1.7%. The same measure for `Cc1nn(C)c2c1c(C(F)(F)F)cc(=O)n2CC(=O)NCCC(C)C`: inactive: -6.52%; for `Cc1cccc(-c2nc3scc(CCNS(=O)(=O)c4ccc(Oc5ccccc5)cc4)n3n2)c1`: inactive: -47%; for `COc1ccc(-c2cc3ccc(O)c(CN4CCC(C)CC4)c3oc2=O)cc1`: inactive: -14%.

In the case of `O=C(Nc1ccc2oc(-c3cccnc3)nc2c1)c1ccc(-c2ccccc2OC(F)(F)F)o1`, the “activity change, positive = activation” value is inactive: -29.8%. The value for `COc1ccc(-n2nc(C(=O)Nc3cc(OC)c(OC)c(OC)c3)c(=O)n(C)c2=O)cc1` was inactive: 3.12%. For the compound `COc1ccc(-n2nc(C(=O)N3CCN(c4ccc(F)cc4)CC3)c3c4ccccc4n(C)c3c2=O)cc1`, the “activity change, positive = activation” value was inactive: 0.214%. The value for `CC1=C(c2ccc(C)cc2)S(=O)(=O)NC1=NCCCN1CCN(c2ccccc2F)CC1` was inactive: -24.2%. The same measure for `COc1ccc(C2CC(c3ccccc3)=NN2c2ccc(S(N)(=O)=O)cc2)cc1` (stereo unspecified): inactive: -19.2%; for `CN1CCN(c2c(F)cc3c(=O)c(C(=O)O)cn4c3c2SCC4)CC1`: inactive: -11.3%.

Take `COc1ccc(NC(=O)Cn2c(=O)n(Cc3nc(-c4ccccc4)no3)c(=O)c3cc4c(cc32)OCO4)c(OC)c1`: the “activity change, positive = activation” value was inactive: -3.51%. The same measure for `Cc1nn(CC(=O)NCc2ccc(Cl)cc2)c(=O)c2cc3sccc3n12`: inactive: -22%; for `O=C(Nc1ccc2oc(-c3cccnc3)nc2c1)c1ccc(Br)cc1`: inactive: -7.44%; for `Cc1ccc(CN2CCCn3nc(C(=O)NC(C)C)cc3C2=O)cc1`: inactive: 20.9%. The same measure for `CC(=O)c1ccc(NC(=O)C2Cc3ccccc3N2C(=O)c2ccccc2)cc1` (stereo unspecified): inactive: 3.53%; for `Cc1ccc(N2CCN(S(=O)(=O)c3cc(C(=O)Nc4cc(Cl)cc(Cl)c4)ccc3F)CC2C)cc1` (stereo unspecified): inactive: -34%.

As for `CC(=O)Nc1nonc1-c1nnc(SCC(=O)Nc2cccc(F)c2)n1-c1ccccc1`, the “activity change, positive = activation” value is inactive: -17.4%. Turning to `COC(=O)c1scc(-c2ccc(C)cc2)c1S(=O)(=O)Nc1ccc(F)cc1F`, the “activity change, positive = activation” value is inactive: -24.4%.

With `CN(C)S(=O)(=O)c1ccc2c(c1)N(CC(=O)NCc1ccc(F)cc1)C(=O)CS2`, the “activity change, positive = activation” value was inactive: 9.03%. For the compound `COc1ccc(C)cc1NC(=O)Cn1c(=O)c(C(F)(F)F)nc2ccccc21`, the “activity change, positive = activation” value is inactive: 3.77%. The same measure for `COc1ccc(Oc2c(C(F)(F)F)oc3c(CN4CCCC(C)C4)c(O)ccc3c2=O)cc1` (stereo unspecified): inactive: -30.7%. On to `COc1ccccc1N1CCN(c2ccc(=O)n(CC(=O)NCc3ccc(OC(C)C)cc3)n2)CC1`, for which the “activity change, positive = activation” value was inactive: -19.7%. As for `Cc1ccc(NC(=O)Cn2cc3c(n2)CCCC3)c(Cl)c1`, the “activity change, positive = activation” value is inactive: 0.0366%. The value for `CNc1c2c(nn1C)CCCC2` was inactive: -8.2%. With `O=C(Nc1ccc(Br)cc1)c1ccc(F)c(S(=O)(=O)N2CCCc3ccccc32)c1`, the “activity change, positive = activation” value is inactive: -44.9%.

For `CC(C)Cn1c(=O)c2sccc2n2c(CCCC(=O)NCCc3ccc(Cl)cc3)nnc12`, the “activity change, positive = activation” value is inactive: -21.4%. Regarding `CCc1ccc(NC(=O)CSc2nc(-c3ccccc3Cl)nc3c2Cc2c(CO)cnc(C)c2O3)cc1`, the “activity change, positive = activation” value is inactive: 10.4%. As to `COc1ccc(OCC(=O)Nc2ccc3c(c2)nc(CCNC(=O)c2ccco2)n3C)cc1`, the “activity change, positive = activation” value is inactive: -23.2%. For the compound `CC(C)NC(=O)c1ccc(-n2c(-c3ccccc3)cc3c2CCCC3)cc1`, the “activity change, positive = activation” value is inactive: -1.28%. The same measure for `COCCOc1ccc2c(c1)ncn2-c1ccc2cccc(N3CCC(N)CC3)c2n1`: inactive: -3.34%; for `CCc1ccc2nc(N(Cc3cccnc3)C(C)=O)sc2c1`: inactive: 3.16%. `CCOC(=O)c1ccc(CN(Cc2ccc(Cl)cc2Cl)S(=O)(=O)c2ccc(F)c(C)c2)cc1`: the “activity change, positive = activation” value is inactive: -26.9%. The value for `COc1ccc(C2CC(=O)N(Cc3ccc(F)cc3)c3ccccc3S2)cc1OC` (stereo unspecified) was inactive: -15.5%; that for `COc1ccc(OC)c2sc(N3CCN(C(=O)c4ccc5c(c4)CCCC5)CC3)nc12` was inactive: -13.1%; that for `CCC1CCc2nc3sc(C(=O)Nc4ccc(C)cc4)c(N)c3cc2C1` (stereo unspecified) was inactive: -3.09%. The value for `CCCCCn1c(=O)[nH]c2cc(C(=O)NCc3ccc(Cl)cc3)ccc2c1=O` was inactive: -9.59%.

Take `COc1ccccc1C(=O)NCCn1cc(SCc2ccc(C)cc2)c2ccccc21`: the “activity change, positive = activation” value is inactive: -31.5%. In the case of `c1ccc(N2CCN(Cc3cccn3-c3nnc(N4CCN(C5CCCCC5)CC4)s3)CC2)cc1`, the “activity change, positive = activation” value is inactive: -2.55%. The same measure for `CCc1ccccc1NS(=O)(=O)c1ccc2c(c1)CCN2C(=O)C1CC1`: inactive: -14.9%; for `CCc1ccc(-c2nn(CC(=O)NC3CCCCC3)c3c2cnc2ccc(C)cc23)cc1`: inactive: 1.84%; for `O=C(CN1CCN(Cc2cccc(Cl)c2)C1=O)NCc1ccc(F)cc1`: inactive: -15.3%. The same measure for `CCN(c1ccccc1C)S(=O)(=O)c1ccc(N2CCCCS2(=O)=O)cc1`: inactive: -5.32%; for `CCOc1ccc(CCNC(=O)c2nn(-c3ccc(OC)c(Cl)c3)c(=O)c3c2c2ccccc2n3C)cc1OCC`: inactive: -6.17%. The same measure for `Cc1nn(-c2ccccc2)c(-n2cccc2)c1C(=O)NCCc1ccc(Cl)cc1`: inactive: -34.4%. In the case of `Cc1cc(NC(=O)COCc2cc(-c3ccc(F)cc3)on2)ccc1Br`, the “activity change, positive = activation” value was inactive: -3.77%.

In the case of `O=C(CCCCn1c(=O)c2ccccc2n(Cc2ccccc2Cl)c1=O)NCc1ccc2c(c1)OCO2`, the “activity change, positive = activation” value was inactive: -16.9%. The value for `COC(=O)C1=C(C)NC(C)=C(C(=O)OCC(C)C)C1c1ccccc1[N+](=O)[O-]` (stereo unspecified) was inactive: -2.16%.

As to `CCOc1ccc(CCNS(=O)(=O)c2c(C)nc3scc(C)n3c2=O)cc1OCC`, the “activity change, positive = activation” value was inactive: -12.3%. Take `CCCn1c2ccccc2c2cnn(CC(=O)N3CCN(c4ccccc4F)CC3)c(=O)c21`: the “activity change, positive = activation” value was inactive: 0.0685%. The same measure for `Cc1ccc(Nc2c(-c3ccc(Cl)cc3)nc3sccn23)c(C)c1`: inactive: -19.5%; for `COc1cccc(N2CCN(C(=O)CCCn3c(=O)[nH]c4ccc(Br)cc4c3=O)CC2)c1`: inactive: -47.4%; for `CCOc1ccc(CNC(=O)c2ccc3nc(CC)c(CC)nc3c2)cc1`: inactive: 14%. The value for `CC(C)Oc1cccc(C(=O)Nc2ccc3oc(-c4cccc(Cl)c4)nc3c2)c1` was inactive: 3.54%; that for `Cc1ccc(C)c(NC(=O)N2CCC(CN3CCOCC3)CC2)c1` was inactive: 0.74%; that for `COc1ccc(OC)c(CNS(=O)(=O)c2ccc3[nH]c4c(c3c2)CCCCC4)c1` was inactive: -48.7%. Take `O=c1ccc2cc(S(=O)(=O)NCc3ccc(Br)cc3)ccc2[nH]1`: the “activity change, positive = activation” value was inactive: -27.4%. The same measure for `CCC(=O)N1CCc2cc(S(=O)(=O)NC(CC(C)C)C(=O)NCCc3cccc(C)c3)ccc21` (stereo unspecified): inactive: 3.2%.
